Hit rate of the full screen: of about 150,000 compounds, about 540 (0.36%) showed an effect of 50% or more. The list shows a part of the results.

The text below walks through data of ChEMBL document CHEMBL4888484, “Replenishing the malaria drug discovery pipeline: Screening and hit evaluation of the MMV Hit Generation Library 1 (HGL1) against asexual blood stage Plasmodium falciparum ,using a nano luciferase reporter read-out” (2022).

The test system of this test is Plasmodium falciparum. Nature of the test: Primary screen in NF54 nanoGlo assay, in single point, at 2uM, 72h; a lower Z score goes with more inhibition. It is filed as functional, Erythrocyte. The conditions noted are these: timepoint 72 hour.
Regarding `O=C(NCc1cncc(C2CC2)c1)c1ccc2ccccc2n1`, the % Inhibition (in general, the drop in the measured response relative to a control, in per cent) is recorded as -5% and the Z score is given as 0.77.
Take `Cc1ccc(-c2noc(-c3sccc3NC(=O)c3ccccc3F)n2)cc1`: the “% Inhibition” value is listed as 7% and the Z score is recorded as -0.73.
The corresponding values for `CC(O)C1CCN(C(=O)NCCCc2cc(F)cc(F)c2)C1` (stereo not drawn) are 1% and -0.07.
The corresponding values for `Cc1cc2c(cc1S(=O)(=O)N(Cc1ccccc1)C(C)C)OCC(=O)N2Cc1noc(C2CC2)n1` are -2% and 0.29.
For `CC(C)CCC1(C2CCN(C(=O)[C@H]3C[C@@H]4C=C[C@H]3C4)CC2)NC(=O)N(CCN(C)C)C1=O` (stereo partly drawn), the “% Inhibition” value is -5% and the Z score was found to be 0.61.
Regarding `O=C(CCc1ccccc1)N1CCC2(CC1)C[C@@H](N(Cc1ccccc1)C1CC1)CCO2`, the “% Inhibition” value is reported as -11% and the Z score is 1.41.
The matching figures for `CCc1nc(C(=O)N[C@H]2CCOC2(C)C)nn1-c1ccccc1`: -3% and 0.42.
The corresponding values for `CC1CCCCC1NC(=O)C1CCN(C(=O)N2CCOc3ccc(Cl)cc32)CC1` (stereo not drawn) are 2% and -0.45.
The corresponding values for `COCCNC(=O)c1nc(-c2nc(-c3ccc4c(c3)OCO4)no2)cs1` are 1% and -0.17.
On to `CC(O)(CN1CCN(C(C#N)c2ccccc2)CC1)C(F)(F)F` (stereo not drawn), for which the “% Inhibition” value is -2% and the Z score is 0.26.
The corresponding values for `CCOc1ccccc1NC(=O)N1Cc2cncnc2C1` are -6% and 0.77.
In the case of `Cc1ncc(C(=O)NCc2cc(Cl)cc3c(C)c(-c4ccccc4)[nH]c23)cn1`, the “% Inhibition” value is reported as -15% and the Z score is given as 1.39.
The matching figures for `COc1cc2cc(CNCc3cn(C)nc3C)c(=O)n(CC3CCCCC3)c2cc1OC`: -7% and 0.98.
For the molecule `CC(=O)N1CCN(C(=O)C[C@@H]2c3nc(NC(=O)c4ccc(F)cc4)sc3C[C@@H]3[C@](C)(CO)[C@H](O)CC[C@]32C)CC1`, the “% Inhibition” value is listed as 6% and the Z score was -0.89.
On to `O=C(COc1ccc(Cl)c(Cl)c1)N(C1CCCCC1)[C@H]1CCS(=O)(=O)C1`, for which the “% Inhibition” value is recorded as -5% and the Z score amounted to 0.8.
The corresponding values for `CCC(NC(=O)N1CCCC(OC2CCC2)C1)C(F)F` (stereo not drawn) are -25% and 2.28.
The matching figures for `Cc1cccc(-c2nc3[nH]c(CN4CCN(c5ccc(F)cc5)CC4)cc(=O)n3n2)c1`: 12% and -1.44.
As to `CCCCc1nn(CC(=O)N2CCC[C@H](C)C2)c(=O)n1Cc1ccccc1`, the “% Inhibition” value worked out at 5% and the Z score is reported as -1.06.
The matching figures for `O=C(c1cccc(Cl)c1)N1CC[C@@]2(CCCN(CC3CC3)C2=O)C1`: 4% and -0.79.
As to `Cc1cc(Cl)ccc1C1=CCN(C(=O)Cc2nc(C3CC3)nn2C)CC1`, the “% Inhibition” value is recorded as 9% and the Z score is given as -1.41.
The corresponding values for `CC(=O)Nc1cc(Br)c(O)c(Br)c1` are -3% and 0.44.
The matching figures for `C[C@H]1OCC[C@H]1NS(=O)(=O)c1cccc(Br)c1`: -1% and 0.1.
The matching figures for `Cc1nc(C)c(CN2CCC[C@H](n3ccc(C(F)(F)F)n3)C2)s1`: -14% and 1.61.
For `c1cc([C@@H]2CCCCN2c2nc(C3CC3)ns2)n[nH]1`, the “% Inhibition” value is recorded as 29% and the Z score is listed as -4.24.
The corresponding values for `COC[C@@H]1CCCN1C(=O)NCc1nc2c(C)cccc2o1` are -3% and 0.46.
The matching figures for `Cc1ccc2nc(NCCN3CCOCC3)sc2c1`: -15% and 1.74.
The matching figures for `O[C@H]1COC[C@@H]1Nc1ncc(Cl)cc1F`: -4% and 0.4.
`CC(C)c1nnc(Cn2ncc3c2C[C@@H](O)CC3)s1`: the “% Inhibition” value was 4% and the Z score is given as -0.6.
The matching figures for `Cc1nn(C)c2nc(N[C@H](c3nccn3C)C(C)C)sc12`: -6% and 1.06.
For the molecule `Cc1csc([C@@H](C)C(=O)N2CCN(c3cnccc3C)CC2)n1`, the “% Inhibition” value was 2% and the Z score is listed as -0.46.
Turning to `Cc1cc(CN(C)C(=O)c2c(C)n[nH]c2C2CC2)no1`, the “% Inhibition” value is on record as -7% and the Z score amounted to 0.89.
The corresponding values for `O=C1CCCC[C@@](Cc2ccccc2)(C(=O)NCCCN2CCOCC2)N1` are 6% and -0.69.
In the case of `CCCc1cc(C(=O)N2C[C@H](CCC)[C@@H](N)C2)no1`, the “% Inhibition” value was -14% and the Z score is recorded as 1.31.
The corresponding values for `COc1ccccc1-c1nc2ccc(C)cn2c1NS(=O)(=O)c1ccccc1` are -12% and 1.19.
Turning to `CCn1cnnc1NCc1csc(C)n1`, the “% Inhibition” value amounted to 5% and the Z score was -0.65.
The corresponding values for `Clc1ccc(-n2nnnc2C2(N3CCOCC3)CCCC2)cc1` are -7% and 1.29.
Turning to `Cn1c(CCNc2ccc3nnnn3n2)nc2ccc(F)cc21`, the “% Inhibition” value is recorded as -26% and the Z score is reported as 4.89.
The corresponding values for `O=C(Nc1cc(-c2ccc(OC(F)F)cc2)no1)c1nccn2ccnc12` are -19% and 3.
The corresponding values for `CC(C)(C)NC(=O)CNc1nnc(Cc2ccc(F)cc2)s1` are -1% and 0.16.
Regarding `CC(C)CCNC(=O)c1[nH]cnc1C(=O)N1CCN(Cc2ccccc2)CC1`, the “% Inhibition” value came out at 32% and the Z score is -3.75.
The matching figures for `CCOC(=O)C1CCN(c2ncnc3c2c(C)c(C)n3-c2cc(Cl)ccc2C)CC1`: 13% and -2.04.
The corresponding values for `COc1ccc(-c2nccn2[C@H](c2ncnn2C)C(C)C)c(F)c1` are -5% and 0.96.
As for `CCO[C@@H](C)CN(C)Cc1nc(C(=O)NC)no1`, the “% Inhibition” value was -11% and the Z score is 2.02.
On to `CC(C)N1C[C@@H](NC(=O)N(C)Cc2noc(C3CCC3)n2)CC1=O`, for which the “% Inhibition” value was determined as 1% and the Z score is -0.22.
The matching figures for `CCc1ccc(NC(=O)c2nn3c(C)cc(C)nc3c2-c2ccc(OC)c(S(=O)(=O)N(CC)CC)c2)cc1`: -8% and 0.79.
The corresponding values for `O=C(CC1CCCCC1)N1CCC2(CC1)C[C@@H](Cc1nc(-c3cccnc3)no1)CCO2` are -20% and 2.74.
The matching figures for `Cc1cc(C)n(Cc2nnc(N3CCN(Cc4ccccc4)CC3)n2Cc2ccccc2C)n1`: -4% and 0.53.
In the case of `COCCn1cnnc1CNc1cc(-c2ccncc2)nc2ccnn12`, the “% Inhibition” value is given as -1% and the Z score stood at 0.18.
Take `COc1ncccc1CNC(=O)CN1CCN(Cc2ccccc2)CC1`: the “% Inhibition” value is reported as -11% and the Z score stood at 1.57.
The matching figures for `CC1CCCCC1NC(=O)C1CCCO1` (stereo not drawn): 5% and -0.54.
`CC(C)N(Cc1ccccc1)C(=O)CCS(=O)(=O)Cc1ccccc1`: the “% Inhibition” value is -8% and the Z score is 1.45.
The matching figures for `Cc1cc(C(=O)Nc2cc3c(=O)[nH]cnc3cc2F)n(C)n1`: -8% and 1.35.
The matching figures for `Cc1ccc(F)c(CN2CCCn3nc(CNC(=O)C4CCC4)cc3C2)c1F`: 0% and -0.03.
The corresponding values for `CCCCN(CC(N)=O)Cc1cccc(F)c1` are -6% and 0.89.
With `O=C(CCn1cccn1)Nc1ccc2c(c1)OCO2`, the “% Inhibition” value came out at 4% and the Z score is listed as -0.65.
The corresponding values for `O=C(c1ccc(Cl)cn1)N1CCC(O)(Cc2cccc(F)c2)CC1` are -18% and 2.12.
The corresponding values for `O=C(Nc1ccc(Cl)cc1Cl)C1=NCCCN1` are -1% and 0.14.
As for `CC1(C)CN(C(=O)Cn2c(C3CC3)nc3ccccc32)C[C@]1(C)O`, the “% Inhibition” value is reported as -3% and the Z score came to 0.54.
Take `CCc1ccccc1S(=O)(=O)N1CCC(c2nc(CNC(=O)C3CCC3)cs2)CC1`: the “% Inhibition” value is reported as -6% and the Z score amounted to 0.75.
On to `COCC(=O)N[C@@H](Cc1ccc(F)cc1)C(C)C`, for which the “% Inhibition” value is recorded as -1% and the Z score is listed as 0.14.
Consider `O=C(CCCc1cn[nH]c1)N1CCC([C@@H](O)CCc2ccccc2)CC1`, for which the “% Inhibition” value is -6% and the Z score worked out at 0.86.
Turning to `CC(C)N1C(=O)C[C@H](NC(=O)N(C)C2CCOCC2)C1=O`, the “% Inhibition” value is -9% and the Z score came out at 0.78.
The matching figures for `Cc1nc(N2CCOCC2)ccc1NC(=O)[C@@H](N)COC(C)C`: -2% and 0.24.
The matching figures for `Cc1nn(C)c(C)c1CCC(=O)N1CCC[C@H]1c1ccc(C(N)=O)s1`: 7% and -1.22.
The corresponding values for `CC(C)(C)c1nsc(NC(=O)NCc2nccs2)n1` are -4% and 0.63.
As for `Cc1c(C(=O)N2CCOCC2)c(S(=O)(=O)N(C)Cc2ccccc2)c(C)n1C`, the “% Inhibition” value is on record as -15% and the Z score amounted to 2.79.
The corresponding values for `C[C@@H](NC(=O)c1ccco1)c1ccccc1` are 0% and 0.04.
The corresponding values for `Cc1cc(C(=O)Nc2ccc(NC(=O)Cc3c[nH]cn3)cc2)co1` are -7% and 0.99.
With `CN(C[C@H]1CC(=O)N(C(C)(C)C)C1)C(=O)c1cncc(O)c1`, the “% Inhibition” value is -12% and the Z score came out at 2.16.
Regarding `CCCCN1CCCC[C@@H]1CNc1ccc2nnnn2n1`, the “% Inhibition” value is -2% and the Z score amounted to 0.29.
For the molecule `Cc1ccc2[nH]nc(C(=O)N[C@H]3CC(=O)N(C4CCCCCC4)C3)c2c1`, the “% Inhibition” value is -7% and the Z score is listed as 0.73.
The corresponding values for `O=C(Nc1cc(C(F)(F)F)ccc1Cl)C1=C(c2ccccc2)S(=O)(=O)CCO1` are 9% and -1.12.
The corresponding values for `CN(Cc1nnnn1CC(F)(F)F)c1ccc(F)c(Cl)c1` are 11% and -1.81.
The matching figures for `O=C(NCCc1c[nH]c2ccccc12)[C@@H]1CCCCO1`: -8% and 1.51.
For `CC(=O)N[C@H]1C[C@@H](c2cccc(OCC(N)=O)c2)O[C@@H](C2CCCCC2)C1`, the “% Inhibition” value was found to be 7% and the Z score is -1.28.
The matching figures for `Cn1ncc2c(=O)[nH]c(CN3CCC[C@H]3c3nccs3)nc21`: -14% and 2.67.
On to `COc1cc(NS(=O)(=O)c2ccc3c(c2)OC[C@@H](C(=O)N2CCCC2)O3)cc(OC)c1`, for which the “% Inhibition” value is recorded as -12% and the Z score turned out to be 2.04.
The matching figures for `N#CCN[C@@H](CC(N)=O)C1CCCCC1`: -2% and 0.33.
With `CC(c1ccccc1)N1C(=O)C2C3CCC(C3)C2C1=O` (stereo not drawn), the “% Inhibition” value is listed as -14% and the Z score came to 1.77.
The corresponding values for `COc1ccc(C(=O)NCCNC(C)=O)cc1OC` are -3% and 0.3.
The corresponding values for `C#CCN1CCC[C@H](NC(=O)OC(C)(C)C)C1` are 1% and -0.1.
`Cc1c(CNC(=O)C2(N3CCCCC3)CCCCC2)cnn1C`: the “% Inhibition” value came out at 8% and the Z score is -1.06.
The corresponding values for `Cc1cnn(CCC(=O)N2CCC[C@H](c3nc4c(C)cccc4[nH]3)C2)c1` are -10% and 1.83.
The matching figures for `Cn1cc(-c2nc([C@@H]3COCCN3Cc3cccc4cccnc34)no2)cn1`: -7% and 0.88.
